Here are results for 42 sequences from publication PMC7819943, “Rice protein-binding microarrays: a tool to detect cis-acting elements near promoter regions in rice”.

Some of the results follow.

The target in the test is T1, OsWOX13 (Oryza sativa, UniProt Q5QMM3 1-267).
T1 sequence: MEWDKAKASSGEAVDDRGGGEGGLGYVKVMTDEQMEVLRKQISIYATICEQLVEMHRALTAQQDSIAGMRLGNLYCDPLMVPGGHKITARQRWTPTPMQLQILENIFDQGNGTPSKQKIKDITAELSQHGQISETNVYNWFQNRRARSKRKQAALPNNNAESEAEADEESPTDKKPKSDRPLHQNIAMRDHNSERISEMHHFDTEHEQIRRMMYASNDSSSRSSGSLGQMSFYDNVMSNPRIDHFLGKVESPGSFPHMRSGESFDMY
The test is described as follows: protein-binding microarray (RPBM); PBS, 2% BSA, 51.3 ng/ul salmon testes DNA, 50 uM zinc acetate, 200 nM TF, 25 C, 1 h; high values mean tight binding. The settings on record: protein: recombinant; tags: N-terminal polyhistidine and DsRed monomer fusion (pET32a); label: CyDye5-dUTP incorporated in the synthesized complementary strand; 3' TTTTT single-stranded linker to array surface; dsDNA, one strand shown. A digest of the protocol: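 Binding signal is defined as the fluorescence intensity of each feature in arbitrary units, read on an Axon 4000B scanner. Transcription factors with N-terminal polyhistidine and DsRed fusions came from E. coli BL21-CodonPlus and were purified on Ni–NTA. They were incubated at 200 nM for 1 h at 25 °C on a custom Agilent array that had been made double-stranded with Cy5-dUTP, with 50 µM zinc acetate present, and the array was washed.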
For “AGATATTTAATCATCAATTTACTATTCAATATTAAAATTCCGGAGTCACCTAGTGCAG”, the binding signal was 9350 fluorescence intensity (a.u.). Take “TATTTAAATTCAAATTGAAATTCAAATTTAAATCGGATATCGGAGTCACCTAGTGCAG”: the binding signal is 16800 fluorescence intensity (a.u.). For the sequence “AGAATCAATTAGTGACCTCTACAATCTGAGGGTCTTGGATCGGAGTCACCTAGTGCAG”, the binding signal was 27200 fluorescence intensity (a.u.). “TCGAACAGGCCCTTAATTATCTGAGCTATCCTGCATGCTTCGGAGTCACCTAGTGCAG”: the binding signal was 8320 fluorescence intensity (a.u.). Turning to “CCAAAATTTGATATTGATAAGGTCAATTTAGGGCACACACCGGAGTCACCTAGTGCAG”, the binding signal is 12300 fluorescence intensity (a.u.). “CTGATTGAAATTGAAAGTTTGATTGAAATTGAAACGATGCCGGAGTCACCTAGTGCAG”: the binding signal was 65300 fluorescence intensity (a.u.). For the sequence “TTCCTATAATTTCTAGTTATGAATCTGGATATAGGCAAAACGGAGTCACCTAGTGCAG”, the binding signal was 4440 fluorescence intensity (a.u.). As to “AAGGTTAAACAAGATTGGCATGTACTCTTTCCATCCCATACGGAGTCACCTAGTGCAG”, the binding signal was 7870 fluorescence intensity (a.u.). In the case of “CATGATTGAGGAGTGAAGAATGAAGTACAGCAATATACACCGGAGTCACCTAGTGCAG” it was 32000 fluorescence intensity (a.u.); in that of “TGGTTAATCATGTGCCTTATTACTCGTAGTTCTCCTCGTTCGGAGTCACCTAGTGCAG”, 4690 fluorescence intensity (a.u.). The value for “AGCTCTAAAATTATAATTTTCAAAATTCATGTCTCATGCCCGGAGTCACCTAGTGCAG” was 12600 fluorescence intensity (a.u.); that for “TTTGATAGGCATATTTCAATCCAACAACCTATCATCTTAACGGAGTCACCTAGTGCAG” was 24700 fluorescence intensity (a.u.); that for “TTTAGATTAACCCGTCACCTAGGGCCTCTTCGAGTTAAGCCGGAGTCACCTAGTGCAG” was 6420 fluorescence intensity (a.u.). The value for “TTCCATGGACTAATTAGCAAGTTAATTTTCAGGGACGAAACGGAGTCACCTAGTGCAG” was 17900 fluorescence intensity (a.u.). For “GCTCCAATTTAATTTCAAAATGAATTTATATATTCATTGTCGGAGTCACCTAGTGCAG”, the binding signal was 14100 fluorescence intensity (a.u.). For “CACGGTTAATATTCTAATTACATGTGTTAAGTCCTTTAAACGGAGTCACCTAGTGCAG”, the binding signal is 5570 fluorescence intensity (a.u.).

With “CTATAAATTTAAGCATATACTTCTATATTCAATTCGACATCGGAGTCACCTAGTGCAG”, the binding signal was 5670 fluorescence intensity (a.u.). The value for “AACTAATTAATGTATATTTATAATTTGAATAATTATCGAGCGGAGTCACCTAGTGCAG” was 51500 fluorescence intensity (a.u.); that for “TTGATAATTAAATGACTATATTTGGTTTGTTACCAAATATCGGAGTCACCTAGTGCAG” was 22700 fluorescence intensity (a.u.); that for “CTGATTAGCCGTTAATATACATGATCAACTATAAAACAAGCGGAGTCACCTAGTGCAG” was 47000 fluorescence intensity (a.u.). “AATAAGGGACTTAATTAGTCTAGGTTAAACTGGATGTTGCCGGAGTCACCTAGTGCAG”: the binding signal was 4640 fluorescence intensity (a.u.). On to “ATGATGTTCATCACCAAATTTGCAAAATTAGCGAGCTAGGCGGAGTCACCTAGTGCAG”, for which the binding signal is 5700 fluorescence intensity (a.u.). With “CCTAATTAAGCTATATACTCCATATAGCTAGCTAAACACACGGAGTCACCTAGTGCAG”, the binding signal is 5020 fluorescence intensity (a.u.).

For “GTAAATCATAGGTGAAATAATATGTTTATAATTTACTTGTCGGAGTCACCTAGTGCAG”, the binding signal was 3320 fluorescence intensity (a.u.). In the case of “AAAAGTGATGCAATTGACTGCAACAGTAATCGTTATTACACGGAGTCACCTAGTGCAG” it was 4880 fluorescence intensity (a.u.); in that of “TGTGGAATTAATTTTGATCTTCTTGTTTCTGCAGTTGTCCCGGAGTCACCTAGTGCAG”, 20000 fluorescence intensity (a.u.). The value for “ATCCTCAATCAGACGGCCAAACAGAAAGGGTTAATCAATGCGGAGTCACCTAGTGCAG” was 23300 fluorescence intensity (a.u.); that for “GTAGTAGATAAATTGATTTGTATGGTTTCTAGAGAAGGGACGGAGTCACCTAGTGCAG” was 25300 fluorescence intensity (a.u.). For the sequence “AAACGCATTGATTGCGCGGCGACGCGAGCCACAGCCACAGCGGAGTCACCTAGTGCAG”, the binding signal was 16700 fluorescence intensity (a.u.). In the case of “CAAAACAAATTACAGATTCCGCCTATAAACTACGAGACGACGGAGTCACCTAGTGCAG” it was 6380 fluorescence intensity (a.u.); in that of “AATAATTGGCACTGCTCCATTAACGTTTTATTACTGACATCGGAGTCACCTAGTGCAG”, 45700 fluorescence intensity (a.u.); in that of “TGGGATAATTATTTTCTTTATGTTTCTGAATGAATAGATACGGAGTCACCTAGTGCAG”, 22600 fluorescence intensity (a.u.). For the sequence “GCCACTGATTGTGGAGGGTGTGGATTTGGATTTACGCATGCGGAGTCACCTAGTGCAG”, the binding signal was 20000 fluorescence intensity (a.u.). The value for “ATAATTTGTTTGTGAGTGCTCTAAGAATATGTAGCTGCTCCGGAGTCACCTAGTGCAG” was 5000 fluorescence intensity (a.u.); that for “ATGTCTCTTTCCTTTCAATCAAAACAACTTCCACCACGAGCGGAGTCACCTAGTGCAG” was 7500 fluorescence intensity (a.u.); that for “ACCAGTTTTGTTGTCCGTAATTGGTGCTTCTATCTTTGCCCGGAGTCACCTAGTGCAG” was 3790 fluorescence intensity (a.u.). Consider “CTATCAAATTCCAATCAGTGGCTGCTGCATCCAGTCAATACGGAGTCACCTAGTGCAG”, for which the binding signal was 14300 fluorescence intensity (a.u.). The value for “CGGGTAATTAAAACCAATTTAGCTCTCGTTCGTCAGCGCCCGGAGTCACCTAGTGCAG” was 29100 fluorescence intensity (a.u.); that for “TTAATTAGTTCTTCCATTTCCACAACTACTCCATATTTCCCGGAGTCACCTAGTGCAG” was 4850 fluorescence intensity (a.u.). The value for “GATCATTACGGTACCTTGATTTATCCTTTATAAATCTCAGCGGAGTCACCTAGTGCAG” was 9130 fluorescence intensity (a.u.).

For “GAATGATCAATTTTGACGAGTTTAAAGTCATGATGCAAGGCGGAGTCACCTAGTGCAG”, the binding signal is 10400 fluorescence intensity (a.u.). For the sequence “CTTAATTCAGCATCACTAATTTGTATGAATTTCATATTCCCGGAGTCACCTAGTGCAG”, the binding signal was 15500 fluorescence intensity (a.u.).
